This is one part of the list.
Target: no compound (DMSO)
Assay: log2 fold change of degron read counts, EGFP-low vs EGFP+ sorted cells; higher = lower degron-EGFP level without compound (poor expression or instability)
Conditions: compound: DMSO control; 18 h
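Note: jurkat cells carrying a lentiviral library of mutant zinc finger degrons fused to EGFP plus mCherry, mCherry+ cells FACS sorted, degron abundance counted by next-generation sequencing.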

Row | Sequence | log2 fold change of degron read counts
1 | LMCPICGFRCTQKGNLLRHIKL | 0.69
2 | FLCNVCGAKFTQKGNLLRHIKL | -0.566
3 | FQCNVCGAKFTQKGNLLRHIKL | -1.93
4 | FVCNQCGAEFTQKGNLLRHIKL | -2.69
5 | FTCEICGHGFTQKGNLLRHIKL | -2.44
6 | FTCEQCGASFTQKGNLLRHIKL | -1.83
7 | FRCDQCGAEFTQKGNLLRHIKL | -1.7
8 | FACPICGRCFTQKGNLLRHIKL | 0.184
9 | FFCDVCGAGFTQKGNLLRHIKL | -0.241
10 | FMCPICGAAFTQKGNLLRHIKL | -0.115
11 | LMCEICGFMCTQKGNLLRHIKL | -0.104
12 | FWCDQCGAKFTQKGNLLRHIKL | -1.17
13 | FTCPQCGAEFTQKGNLLRHIKL | -2.27
14 | FLCEICGAYFTQKGNLLRHIKL | -0.21
15 | FLCPQCGAEFTQKGNLLRHIKL | -2.31
16 | FFCDVCGATFTQKGNLLRHIKL | -2.46
17 | FYCEICGRTFTQKGNLLRHIKL | -1.35
18 | FYCNQCGRCFTQKGNLLRHIKL | 0.223
19 | FICNQCGASFTQKGNLLRHIKL | -1.29
20 | FCCNICGAVFTQKGNLLRHIKL | 0.432
21 | FQCPICGRSFTQKGNLLRHIKL | 0.0142
22 | FECDQCGAGFTQKGNLLRHIKL | -0.519
23 | FCCEICGAGFTQKGNLLRHIKL | -1.28
24 | FKCEICGHTFTQKGNLLRHIKL | -2.71
25 | FICPVCGAAFTQKGNLLRHIKL | -0.0924

Row | Sequence | log2 fold change of degron read counts
26 | FDCNQCGAFFTQKGNLLRHIKL | 1.07
27 | FYCPQCGALFTQKGNLLRHIKL | 0.78
28 | FSCPICGHVFTQKGNLLRHIKL | -0.0614
29 | FMCNQCGHEFTQKGNLLRHIKL | -0.965
30 | FKCSVCGHRFTQKGNLLRHIKL | -0.198
31 | FGCNVCGAGFTQKGNLLRHIKL | 0.198
32 | FLCNICGAAFTQKGNLLRHIKL | -0.587
33 | FYCEICGHEFTQKGNLLRHIKL | -1.15
34 | FYCPICGRHFTQKGNLLRHIKL | -3.34
35 | FYCEQCGAAFTQKGNLLRHIKL | -1.23
36 | FNCNQCGHYFTQKGNLLRHIKL | 1.17
37 | FACPICGRYFTQKGNLLRHIKL | 0.415
38 | FNCEICGHPFTQKGNLLRHIKL | -0.62
39 | FECPQCGAHFTQKGNLLRHIKL | -0.963
40 | FTCDICGAIFTQKGNLLRHIKL | -1.17
41 | FTCPICGHCFTQKGNLLRHIKL | 0.0319
42 | FSCEICGRMFTQKGNLLRHIKL | -0.954
43 | FSCEICGRAFTQKGNLLRHIKL | -2.91
44 | FYCDVCGASFTQKGNLLRHIKL | -1.01
45 | LKCEICGFNCTQKGNLLRHIKL | -0.439
46 | FVCPVCGAMFTQKGNLLRHIKL | 0.195
47 | FDCEVCGAKFTQKGNLLRHIKL | -1.52
48 | FMCEICGHRFTQKGNLLRHIKL | -1.6
49 | FCCPVCGASFTQKGNLLRHIKL | -0.146
50 | FDCDQCGAGFTQKGNLLRHIKL | -1.3
